From ChEMBL document CHEMBL3098072 (Bioorg Med Chem, 2014)
Converted amounts (≈) assume the structure as drawn.

tested on: Mycobacterium tuberculosis; assay: microbe, parasite or virus in culture; conditions: H37Rv-CV-Lux AB, 240 h

Cc1ccc(-c2cnnc(N3CCC(c4ccc(O)c(O)c4)C3)n2)o1 (stereo unspecified) and COc1ccc(C2CCN(c3nncc(-c4ccc(C)o4)n3)C2)cc1O (stereo unspecified) cannot be ordered by MIC: > 128 µM for the first, > 128 µM for the second.

First: Clc1cccc(C2CCN(c3nncc(-c4ccc(Br)cc4)n3)C2)c1 (stereo unspecified)
Second: Nc1ccc(-c2cnnc(N3CCC(c4cccc(Cl)c4)C3)n2)cc1 (stereo unspecified)
The MIC of the first is lower: 77.7 µM (≈ 32.3 µg/mL) for the first, > 128 µM for the second.

Clc1cccc(C2CCN(c3nncc(-c4ccc5c(c4)OCO5)n3)C2)c1 (stereo unspecified) and O=[N+]([O-])c1cccc(-c2cnnc(N3CCC(c4cccc(Cl)c4)C3)n2)c1 (stereo unspecified) cannot be ordered by MIC: > 16 µM for the first, > 128 µM for the second.

O=[N+]([O-])c1ccc(-c2cnnc(N3CCC(c4cccc(Cl)c4)C3)n2)cc1 (stereo unspecified) and O=[N+]([O-])c1cccc(-c2ccc(-c3cnnc(N4CCC(c5cccc(Cl)c5)C4)n3)cc2)c1 (stereo unspecified) cannot be ordered by MIC: > 128 µM for the first, > 128 µM for the second.

O=[N+]([O-])c1cccc(-c2ccc(-c3cnnc(N4CCC(c5cccc(Cl)c5)C4)n3)o2)c1 (stereo unspecified) and COC(=O)c1cccc(-c2ccc(-c3cnnc(N4CCC(c5cccc(Cl)c5)C4)n3)o2)c1 (stereo unspecified) cannot be ordered by MIC: > 16 µM for the first, > 16 µM for the second.

Compared with FC(F)(F)c1ccccc1-c1ccc(-c2cnnc(N3CCC(c4cccc(Cl)c4)C3)n2)o1 (stereo unspecified), Cc1ccc(-c2cnnc(N3CCC(c4cccc(Cl)c4)C3)n2)o1 (stereo unspecified) is lower in MIC: > 128 µM for the first, 58.8 µM (≈ 20 µg/mL) for the second.

Cc1ccc(-c2cnnc(N3CCC(c4ccccc4)C3)n2)o1 (stereo unspecified) and Cc1ccc(-c2cnnc(N3CCC(c4cccc(F)c4)C3)n2)o1 (stereo unspecified) are within 1.5-fold of each other in MIC: 54.7 µM (≈ 16.8 µg/mL) for the first, 47.9 µM (≈ 15.5 µg/mL) for the second.

Cc1ccc(-c2cnnc(N3CCC(c4cccc(C(F)(F)F)c4)C3)n2)o1 (stereo unspecified) and Cc1ccc(-c2cnnc(N3CCC(c4cccc(N)c4)C3)n2)o1 (stereo unspecified) are within 1.5-fold of each other in MIC: 57.6 µM (≈ 21.6 µg/mL) for the first, 47.1 µM (≈ 15.1 µg/mL) for the second.

Cc1ccc(-c2cnnc(N3CCC(c4cccc(C#N)c4)C3)n2)o1 (stereo unspecified) and Cc1ccc(-c2cnnc(N3CCC(c4cccc(O)c4)C3)n2)o1 (stereo unspecified) are within 1.5-fold of each other in MIC: 50.3 µM (≈ 16.7 µg/mL) for the first, 58.9 µM (≈ 19 µg/mL) for the second.

Cc1ccc(-c2cnnc(N3CCC(n4cnc5c(N)ncnc54)C3)n2)o1 (stereo unspecified) and Cc1ccc(-c2cnnc(N3CCC(c4cccc([N+](=O)[O-])c4)C3)n2)o1 (stereo unspecified) cannot be ordered by MIC: > 128 µM for the first, > 16 µM for the second.

CO[C@H]1/C=C/O[C@@]2(C)Oc3c(C)c(O)c4c(O)c(c(/C=N/N5CCN(C)CC5)c(O)c4c3C2=O)NC(=O)/C(C)=C\C=C\[C@H](C)[C@H](O)[C@@H](C)[C@@H](O)[C@@H](C)[C@H](OC(C)=O)[C@@H]1C [RIFAMPIN] gave an MIC of 0.24 µM (≈ 0.198 µg/mL).
